# IC50 is the fitted dose that halves viability relative to control wells, and lower means more sensitive; a fit beyond the top or the lowest dose is shown as a bound at that dose. AUC sums up the same curve from the lowest dose to the 256-fold higher top dose; the more sensitive the line, the further below 1. An inferred top dose was derived from the fitted curves, not read from the paper.
# How the values were obtained:
# Test in all cases: Viability of human cancer cell lines after 72 h of drug (GDSC screen)
# I-BET-762 = compound: CCNC(=O)C[C@@H]1N=C(c2ccc(Cl)cc2)c2cc(OC)ccc2-n2c(C)nnc21 [I-BET-762]; settings: top dose 20 µM; top dose inferred
# Method: (§1)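 Human cancer cell lines in 384-well plates, medium with 10% serum, drug for 72 h over a 256-fold dose range (nine 2-fold or five 4-fold steps up to the top dose). Adherent lines were fixed and stained with the nucleic acid dye Syto60, suspension lines read with resazurin; signal relative to control wells, capped at 0 and 100%. One two-parameter sigmoid per drug and line, fitted in a mixed model over all curves with the slope shared within a line.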
# PF-4708671 = compound: CCc1cncnc1N1CCN(Cc2nc3ccc(C(F)(F)F)cc3[nH]2)CC1 [PF-4708671]; settings: top dose 10 µM; top dose inferred
# Method: as §1
# KIN001-244 = compound: O=C(NC(COc1ccc2[nH]c(=O)[nH]c2c1)c1ccccc1)c1cccn(Cc2ccc(F)c(F)c2)c1=O [KIN001-244]; settings: top dose 20 µM; top dose inferred
# Method: as §1
# AV-951 = compound: COc1cc2nccc(Oc3ccc(NC(=O)Nc4cc(C)on4)c(Cl)c3)c2cc1OC [AV-951]; settings: top dose 0.128 µM; top dose inferred
# Method: as §1
# HG-6-64-1 = compound: CCN1CCN(Cc2ccc(NC(=O)c3ccc(C)c(/C=C/c4cnc5[nH]ccc5c4OC)c3)cc2C(F)(F)F)CC1 [HG-6-64-1]; settings: top dose 5.12 µM; top dose inferred
# Method: as §1
Cell Line,AUC (I-BET-762),IC50 (I-BET-762),AUC (PF-4708671),IC50 (PF-4708671),AUC (KIN001-244),IC50 (KIN001-244),AUC (AV-951),IC50 (AV-951),AUC (HG-6-64-1),IC50 (HG-6-64-1)
"201T (lung adenocarcinoma, adherent)",0.917,> 20 µM,0.956,> 10 µM,0.909,> 20 µM,0.96,> 0.128 µM,0.697,1.33 µM
"647-V (bladder, adherent)",0.982,> 20 µM,0.845,7.28 µM,0.913,> 20 µM,0.981,> 0.128 µM,0.663,0.911 µM
"A427 (non-small cell lung carcinoma, adherent)",0.982,> 20 µM,0.786,4.36 µM,0.887,> 20 µM,0.984,> 0.128 µM,0.489,0.298 µM
"A2058 (melanoma, adherent)",0.99,> 20 µM,0.989,> 10 µM,0.949,> 20 µM,0.99,> 0.128 µM,0.704,1.12 µM
"AGS (stomach, adherent)",0.973,> 20 µM,0.983,> 10 µM,0.93,> 20 µM,0.99,> 0.128 µM,0.673,0.915 µM
"AU565 (breast, adherent)",0.948,> 20 µM,0.927,> 10 µM,0.853,18.5 µM,0.984,> 0.128 µM,0.89,> 5.12 µM
"BICR31 (head and neck, adherent)",0.978,> 20 µM,,,0.955,> 20 µM,0.987,> 0.128 µM,0.683,1.05 µM
"CHP-134 (neuroblastoma, suspension)",0.675,4.44 µM,,,0.915,> 20 µM,0.979,> 0.128 µM,,
"COR-L303 (small cell lung carcinoma, suspension)",0.749,6.31 µM,,,0.876,18.8 µM,0.981,> 0.128 µM,,
"Caov-3 (ovary, adherent)",0.884,17.1 µM,,,0.918,> 20 µM,0.99,> 0.128 µM,0.978,> 5.12 µM
"NCI-H2228 (lung adenocarcinoma, adherent)",0.955,> 20 µM,,,0.886,> 20 µM,0.953,> 0.128 µM,0.731,2.09 µM
"PFSK-1 (medulloblastoma, adherent)",0.984,> 20 µM,,,0.916,> 20 µM,0.985,> 0.128 µM,0.953,> 5.12 µM
"QGP-1 (pancreas, adherent)",0.689,5.91 µM,0.979,> 10 µM,0.872,> 20 µM,0.978,> 0.128 µM,,
"SK-MEL-5 (melanoma, adherent)",0.983,> 20 µM,0.936,> 10 µM,0.914,> 20 µM,0.982,> 0.128 µM,,
"SNU-175 (large intestine, suspension)",0.589,2.16 µM,,,0.871,16.8 µM,0.981,> 0.128 µM,,

# Reference: the supplement of paper PMC4967469
